# Among all 310,000 compounds or so, about 2,200 (0.71%) showed an effect of 50% or more. Effects have a minus sign here. The list shows a part of the results.
# Target: human ether-à-go-go-related gene (hERG) potassium channel (human, UniProt Q12809)
# Assay: primary screen, population patch clamp on CHO cells stably expressing hERG
# human ether-à-go-go-related gene (hERG) potassium channel, sequence (Q12809 whole entry, looked up): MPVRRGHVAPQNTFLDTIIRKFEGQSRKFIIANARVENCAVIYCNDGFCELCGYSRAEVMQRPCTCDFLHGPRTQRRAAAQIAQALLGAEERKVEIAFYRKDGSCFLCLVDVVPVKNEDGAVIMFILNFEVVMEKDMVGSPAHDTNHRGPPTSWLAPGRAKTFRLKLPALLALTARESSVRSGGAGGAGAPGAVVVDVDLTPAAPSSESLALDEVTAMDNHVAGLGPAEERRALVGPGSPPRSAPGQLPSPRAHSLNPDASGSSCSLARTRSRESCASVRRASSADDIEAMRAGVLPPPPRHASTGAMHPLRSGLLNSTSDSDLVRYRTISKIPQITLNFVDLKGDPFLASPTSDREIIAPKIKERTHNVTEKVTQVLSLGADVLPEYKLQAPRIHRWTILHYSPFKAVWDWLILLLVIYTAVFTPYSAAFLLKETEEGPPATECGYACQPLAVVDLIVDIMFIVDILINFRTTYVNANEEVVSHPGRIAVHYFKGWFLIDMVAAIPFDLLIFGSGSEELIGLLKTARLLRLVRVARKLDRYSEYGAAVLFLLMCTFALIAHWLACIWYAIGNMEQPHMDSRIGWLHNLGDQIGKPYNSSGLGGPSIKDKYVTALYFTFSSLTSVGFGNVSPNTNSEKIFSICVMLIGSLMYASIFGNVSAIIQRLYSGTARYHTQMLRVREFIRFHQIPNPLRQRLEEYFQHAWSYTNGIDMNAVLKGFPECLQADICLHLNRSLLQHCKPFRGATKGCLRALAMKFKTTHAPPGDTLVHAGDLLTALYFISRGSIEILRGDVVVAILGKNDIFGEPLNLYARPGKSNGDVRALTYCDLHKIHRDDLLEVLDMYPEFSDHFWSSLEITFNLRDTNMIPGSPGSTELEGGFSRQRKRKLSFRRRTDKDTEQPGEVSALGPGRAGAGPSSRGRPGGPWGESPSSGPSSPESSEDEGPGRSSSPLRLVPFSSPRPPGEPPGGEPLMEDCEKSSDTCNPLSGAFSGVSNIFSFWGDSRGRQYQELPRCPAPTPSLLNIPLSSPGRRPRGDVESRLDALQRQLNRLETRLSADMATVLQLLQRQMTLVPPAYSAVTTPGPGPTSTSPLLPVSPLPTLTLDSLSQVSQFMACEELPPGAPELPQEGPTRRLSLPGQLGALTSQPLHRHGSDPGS
row,SMILES,"hERG current change (%, negative = inhibition) at 1uM [%]"
1,C=CCn1nc(-c2ccccc2)c2c(C)onc2c1=O,0.704
2,NC(=O)c1ccc(NC(=O)COC(=O)C(Cc2ccccc2)NC(=O)c2ccccc2)cc1 (centres unmarked),6.79
3,COc1ccc(-n2c(O)c(C=NCc3ccc4c(c3)OCO4)c(=O)[nH]c2=O)cc1,11.1
4,COc1ccc([N+](=O)[O-])cc1/C=N/NC(=O)c1nonc1N,12.4
5,CCN(CC)CCCN1C(=O)c2oc3ccccc3c(=O)c2C1c1cc(OC)ccc1OC (centres unmarked),-3.13
6,CCOC(=O)N/N=C/c1cccnc1,5
7,Cc1cccc(C)c1NC(=S)N(CCc1ccncc1)C(C)C,14.1
8,CCOc1ccc(OCc2ccc(C(=O)Nc3cccc(C)n3)o2)cc1,5.63
9,CN(C)CCN(Cc1ccccc1)S(=O)(=O)c1csc(C(N)=O)c1,17.6
10,N#CC(C#N)=C(N)CSc1cccc[n+]1[O-],16.4
11,CCOC(=O)c1c(C)[nH]c(N=Nc2ccc(C)cc2)c1C,11.9
12,Cc1ccc(NC(=O)Cn2cnc3sc(C(=O)NCc4ccco4)c(C)c3c2=O)cc1Cl,-1.33
13,COc1ccc(CNC(=O)CCCn2nc(C)c([N+](=O)[O-])c2C)cc1,2.05
14,CCOC(=O)c1c(C)n(C)c2ccc(OCC(O)CN3CCCCCC3)cc12.Cl (centres unmarked),1.74
15,O=c1[nH]c2ccccc2nc1C(F)(F)F,10.6
16,FC(F)(F)Oc1ccc(Nc2nc3ccccc3o2)cc1,11.5
17,COc1ccc(/C=C2\CCn3c2nc2cc(C(=O)O)ccc2c3=O)cc1,9.29
18,CCc1noc(C)c1C(=O)N1CCCC1,9.92
19,COCc1cc(C)nc2sc(C(=O)NN)c(-n3cccc3)c12,6.7
20,COc1ccc(C(=O)C2CCCN(S(=O)(=O)c3ccccc3F)C2)c(C)c1 (centres unmarked),10.1
21,Cc1ccc(Oc2ccc(Cl)cc2N)cc1,13.6
22,COc1ccccc1CNCC(=O)Nc1ccc(C#N)cc1.O=C(O)C(=O)O,8.33
23,Brc1ccc(/C=C/C=N/Nc2nc3ccccc3s2)cc1,3.23

row,SMILES,"hERG current change (%, negative = inhibition) at 1uM [%]"
1,CC(C)C1Oc2ccccc2N(CC(=O)N(Cc2ccncc2)Cc2ccco2)C1=O (centres unmarked),-19.4
2,Cn1nnnc1SCC(=O)NCc1ccccc1,4.51
3,COCCN(Cc1cc2cc(C)ccc2n2nnnc12)C(=S)Nc1ccccc1C,17
4,O=S(=O)(NC1CCCCCC1)c1cccc2cccnc12,6.75
5,COc1ccc(N2C(=O)/C(=C/c3ccc([N+](=O)[O-])cc3)N=C2C)cc1,10.9
6,CCCOc1ccc(C(=O)CCCC(=O)c2ccc(OCCC)cc2)cc1,18.8
7,COc1ccc(Cc2nc3ccc(C(=O)NCC(C)(C)OC)cc3o2)cc1,16.4
8,Cc1ccc(C(=O)N2CCC(C(=O)Nc3cccc([N+](=O)[O-])c3)CC2)cc1,-42.1
9,CCC[n+]1c2ccccc2cc2ccccc21.[I-],14
10,Cc1cccc(COc2ncnc3nc[nH]c23)c1,8.09
11,O=C(O)COc1ccccc1/C=N/Nc1ccc(S(=O)(=O)N2CCOCC2)cc1[N+](=O)[O-],14.5
12,CC(=O)c1cccc(OCc2cc(C(=O)N(C)CCc3ccccn3)no2)c1,0.0123
13,CCCCOC(=O)CSC1=C(C#N)C(c2cccnc2)C(C(=O)OCC)=C(c2ccccc2)N1 (centres unmarked),-11.5
14,O=C(CNC(=O)c1ccc(F)cc1)N/N=C/c1cccnc1,7.62
15,CCN(CC)S(=O)(=O)c1ccc(N2CCOCC2)c(NC(=O)c2cccc(C#N)c2)c1,-1.31
16,Cc1cc2cc(CNC(=O)c3ccc(S(=O)(=O)N4CCCCC4)cc3)ccc2n1C,15.7
17,COc1ccc(-n2c(CN3CCN(c4ccccc4)CC3)nc3ccc([N+](=O)[O-])cc3c2=O)c(OC)c1,2.89
18,COc1cccc(C(=O)Nc2ccc3nc4n(c(=O)c3c2)CCCC4)c1,-32.8
19,COc1cccc(NC(=S)N2c3ccccc3CC2C)c1 (centres unmarked),7.84
20,Cc1nn(CC(=O)NCc2ccccn2)c(C)c1[N+](=O)[O-],0.675
21,O=C(O)CCNC(=O)c1ccc(NC(=O)C(c2ccccc2)c2ccccc2)cc1,17.5
22,COc1ccc(/C=C/C(=O)NCC(=O)N/N=C(/CCC(=O)O)c2ccccc2)cc1,2.51
23,CCc1ccc(OCC(=O)OC(C)C(=O)NC2CC2)cc1 (centres unmarked),3.93

row,SMILES,"hERG current change (%, negative = inhibition) at 1uM [%]"
1,COC(=O)C1=C(c2c(C)noc2C)C[C@@H]2CC[C@H]1N2C(=O)NC1CCCCC1,10
2,CCOC(=O)c1cc(CNC(=O)c2c(C)oc3c2CCCC3)c(C)o1,5.61
3,NC(N)=NS(=O)(=O)c1ccc(NC(=S)NC(=O)c2ccc(Br)cc2)cc1,7.76
4,COc1ccc(OC)c(-c2csc(N(Cc3ccco3)C(=O)c3ccco3)n2)c1,15.3
5,O=c1[nH][nH]cc1C=NCc1cccc(C(F)(F)F)c1,13.6
6,COc1ccc(CN2CCN(CCc3ccccc3)C(CCO)C2)c(O)c1 (centres unmarked),-26.9
7,N#CC(Sc1ccccn1)c1ccc(Cl)cc1 (centres unmarked),-2.94
8,COc1ccc(C(=O)N(C)C2CCCN(Cc3ccccc3F)C2)cc1OC (centres unmarked),10.2
9,COc1ccccc1NC(=O)COc1ccc(C(=O)NC2CCCc3ccccc32)cc1OC (centres unmarked),11
10,CCOC(=O)/C=c1\s/c(=C\c2ccc3cc(OC)ccc3c2)c(=O)n1CC(=O)NCC1CCCO1 (centres unmarked),12.6
11,Cc1cc(C)nc(N2CCC(C(=O)Nc3ccc4c(c3)CCC4)CC2)n1,16.3
12,O=C(CSc1nc(C2CC2)nc2c1cnn2-c1ccccc1)Nc1c[nH]c(=O)[nH]c1=O,5.65
13,O=C1Nc2cc(C(=O)N3CCOCC3)ccc2S/C1=C\c1ccccc1,9.73
14,O=C1C2CC=C(Cl)CC2C(=O)N1CCC[n+]1ccccc1.[Br-] (centres unmarked),-7.67
15,NNC(=O)CC1NCCN(Cc2ccccc2)C1=O (centres unmarked),14.4
16,CCCCC1CCCOC(C(=O)NCCNCCO)(C(F)(F)F)C1 (centres unmarked),13.7
17,CCOc1cc(CNCCc2ccccc2)ccc1OCC(=O)NC(C)(C)C.Cl,9.83
18,CCCC(=NCc1ccccc1)C1=C(O)C(C(=O)OC)C(C)(C)CC1=O (centres unmarked),5.64
19,COC(=O)c1cc(CNC(=O)c2ccccc2OCc2c(C)noc2C)ccc1OC,-16.3
20,COc1ccc(/C=N/OCC(=O)N(Cc2ccccc2)c2ccccc2C(=O)O)cc1,3.58
21,O=C(O)C1CC=CCC1C(=O)N1CCCC1 (centres unmarked),-1.33
22,CC(=O)NC(=S)Nc1ccccc1N1CCN(C(=O)c2ccccc2)CC1,10.6
23,COc1ccc(OC)c(NC(=O)c2cc(S(=O)(=O)N(C)C)ccc2N2CCCC2)c1,-18.1

row,SMILES,"hERG current change (%, negative = inhibition) at 1uM [%]"
1,COc1ccc(CN2CCNC(=O)C2CC(=O)N(C)CCc2cnn(C)c2)c(F)c1 (centres unmarked),11.8
2,CCCNC(=O)/C=C/C(=O)O,-2.69
3,c1ccc(C2=NNC(c3ccccn3)=NN2)nc1,11.4
4,Cc1c(C(=O)N(Cc2ccccc2)C2CCS(=O)(=O)C2)oc2ccccc12 (centres unmarked),4.86
5,COc1cc(C2C(C#N)=C(N)Oc3n[nH]c(-c4cccnc4)c32)ccc1OCC(N)=O (centres unmarked),5.86
6,CC1=CC(C)(C)N(S(=O)(=O)c2ccc(C)cc2)c2ccccc21,-0.428
7,CC(=O)Nc1ccc(NC(=O)CSC2=NS(=O)(=O)c3cc(Cl)ccc3N2)cc1,13.5
8,CCOC(=O)C(=O)Nc1ccc(OC)c(Cl)c1,2.62
9,Cn1ncc(Cl)c1C(=O)Nc1ccncc1,3.38
10,NC1=NC2(CCC(c3ccccc3)CC2)n2c(nc3ccccc32)N1 (centres unmarked),-1.84
11,CC(=O)NCCn1c(SCc2cccc([N+](=O)[O-])c2)nc2ccccc2c1=O,12.8
12,Cc1c(CNC(=O)c2nn3c(c2Cl)NC(c2ccccc2)CC3C(F)(F)F)cnn1C (centres unmarked),11.9
13,COc1cccc(CNc2ccc(F)c(Cl)c2)c1,12.5
14,CCCn1c(C)cc(-c2csc(N)n2)c1C.Cl,11.3
15,Cn1cc(S(=O)(=O)c2ccccc2)c(=O)c2cc(F)c(N3CCOCC3)cc21,1.86
16,Cc1onc(-c2ccccc2)c1C(=O)N/N=C/c1ccc([N+](=O)[O-])s1,2.27
17,COC(=O)C1(CC2CC(c3cccc(Br)c3)=NO2)CCN(C(=O)OC(C)(C)C)CC1 (centres unmarked),3.69
18,CC(=O)N(CCCCl)C(C#N)c1ccccc1 (centres unmarked),13.8
19,Cc1ccc(C)c(Cc2c(C)nc(C)[nH]c2=O)c1,12.9
20,Cc1c(Cl)cccc1NC(=S)N1CCN(C(=O)c2ccco2)CC1,12.2

# — PMC4336329 (PLoS ONE, 2015)
